# Measured values: the supplement of paper PMC8728848
# The other results are listed elsewhere or left out.
# B1: PX14375l-pdi-526-25-526 (Parabacteroides distasonis) (protein)
# chain: DEEPKSTLTDVAYYKTQSQMESNVNYLYRTGAIGSYVDFGSAYIGPFASIQEELTGYFSNSYEGQEIVCRYTRELTRQQNTMQLASKMDKVWDDCYRGINVANGAIKHMPEVPMDQATADRLTAEAKFFRAFNYFYLVKTFGAVPFYTDPYELAENMELPRTETSTIYNQIESDLKDAMNVLPEATFAANGHRITKYVAAMTLTDVYMYQHKYAEAAETVRIVVNSNHKLTTNDDLAMNSAFNKLRSTDDLDEAIYAYEYDNQISPSNWLPTYAFDGDASSNGLFGTYAITQKVHGPNDRYLNIYESNDLRRQPNQFYHWTYTNPKTGKVWNSVGNAACCWYYYDEDALLTTGRGTKDWNVYRYAEALLDAAESIAQSTGVTAEAAGYLAQVKARANMEGKTAAEIASSLQSMGKQAFIEECWTERLRELPLEFKMWDMCVRTGMFPNISETTPGQVTYIPLVGAKNASGATIKESDLLWPLSVNEIQRNPSLTQNEGYSAK
# Legend:
# Experiment in all cases: glycan array binding signal (z-score within array); higher = stronger binding
# Conditions in all cases: glycan notation: IUPAC condensed, linker removed
# [1] = target: Fuc(a1-2)[Gal(a1-4)]Gal(b1-4)GlcNAc
# Outline: (§1)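 Arrays were curated from the Consortium for Functional Glycomics database, 3228 in total, and kept only where the protein sequence was available. Binding is expressed as a within-array Z-score. This score was averaged across arrays of the same protein sequence at different concentrations or buffers and across linkers, and negative values can be read as non-binding.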
# [2] = target: Fuc(a1-2)[GalNAc(a1-3)]Gal
# Outline: as §1
# [3] = target: Fuc(a1-2)[GalNAc(a1-3)]Gal(b1-3)GalNAc(a1-3)[Fuc(a1-2)]Gal(b1-4)GlcNAc
# Outline: as §1
# [4] = target: Fuc(a1-2)[GalNAc(a1-3)]Gal(b1-3)GalNAc(b1-3)Gal(a1-4)Gal(b1-4)Glc
# Outline: as §1
# [5] = target: Fuc(a1-2)[GalNAc(a1-3)]Gal(b1-3)GlcNAc
# Outline: as §1
# [6] = target: Fuc(a1-2)[GalNAc(a1-3)]Gal(b1-3)GlcNAc(b1-2)Man(a1-3)[Fuc(a1-2)[GalNAc(a1-3)]Gal(b1-3)GlcNAc(b1-2)Man(a1-6)]Man(b1-4)GlcNAc(b1-4)GlcNAc
# Outline: as §1
# [7] = target: Fuc(a1-2)[GalNAc(a1-3)]Gal(b1-3)GlcNAc(b1-2)Man(a1-3)[Fuc(a1-2)[GalNAc(a1-3)]Gal(b1-3)GlcNAc(b1-2)Man(a1-6)]Man(b1-4)GlcNAc(b1-4)[Fuc(a1-6)]GlcNAc
# Outline: as §1
# [8] = target: Fuc(a1-2)[GalNAc(a1-3)]Gal(b1-3)GlcNAc(b1-3)GalNAc
# Outline: as §1
# [9] = target: Fuc(a1-2)[GalNAc(a1-3)]Gal(b1-3)GlcNAc(b1-6)GalNAc
# Outline: as §1
# [10] = target: Fuc(a1-2)[GalNAc(a1-3)]Gal(b1-4)Glc
# Outline: as §1
# [11] = target: Fuc(a1-2)[GalNAc(a1-3)]Gal(b1-4)GlcNAc
# Outline: as §1
# [12] = target: Fuc(a1-2)[GalNAc(a1-3)]Gal(b1-4)GlcNAc(b1-2)Man
# Outline: as §1
# [13] = target: Fuc(a1-2)[GalNAc(a1-3)]Gal(b1-4)GlcNAc(b1-2)Man(a1-3)[Fuc(a1-2)[GalNAc(a1-3)]Gal(b1-4)GlcNAc(b1-2)Man(a1-6)]Man(b1-4)GlcNAc(b1-4)GlcNAc
# Outline: as §1
# [14] = target: Fuc(a1-2)[GalNAc(a1-3)]Gal(b1-4)GlcNAc(b1-2)Man(a1-3)[Fuc(a1-2)[GalNAc(a1-3)]Gal(b1-4)GlcNAc(b1-2)Man(a1-6)]Man(b1-4)GlcNAc(b1-4)[Fuc(a1-6)]GlcNAc
# Outline: as §1
# [15] = target: Fuc(a1-2)[GalNAc(a1-3)]Gal(b1-4)GlcNAc(b1-3)Gal(b1-4)GlcNAc
# Outline: as §1
# [16] = target: Fuc(a1-2)[GalNAc(a1-3)]Gal(b1-4)GlcNAc(b1-3)Gal(b1-4)GlcNAc(b1-3)Gal(b1-4)GlcNAc
# Outline: as §1
# [17] = target: Fuc(a1-2)[GalNAc(a1-3)]Gal(b1-4)GlcNAc(b1-3)GalNAc
# Outline: as §1
# [18] = target: Fuc(a1-2)[GalNAc(a1-3)]Gal(b1-4)GlcNAc(b1-3)[Fuc(a1-2)[GalNAc(a1-3)]Gal(b1-4)GlcNAc(b1-6)]GalNAc
# Outline: as §1
# [19] = target: Fuc(a1-2)[GalNAc(a1-3)]Gal(b1-4)GlcNAc(b1-6)GalNAc
# Outline: as §1
# [20] = target: Fuc(a1-2)[GalNAc(a1-3)]Gal(b1-4)[Fuc(a1-3)]GlcNAc
# Outline: as §1
# [21] = target: Fuc(a1-2)[GalNAc(a1-3)]Gal(b1-4)[Fuc(a1-3)]GlcNAc(b1-3)GalNAc
# Outline: as §1
# [22] = target: Fuc(a1-2)[GalNAc(a1-4)]Gal(b1-4)GlcNAc
# Outline: as §1
# [23] = target: Fuc(a1-2)[GalNAc(b1-3)]Gal
# Outline: as §1
# Fuc(a1-3)GlcNAc = target: Fuc(a1-3)GlcNAc
# Outline: as §1
# [24] = target: Fuc(a1-3)[Gal(b1-4)]Glc6S
# Outline: as §1
# [25] = target: Fuc(a1-3)[Gal(b1-4)]GlcNAc
# Outline: as §1
# [26] = target: Fuc(a1-3)[Gal(b1-4)]GlcNAc(b1-2)Man
# Outline: as §1
# [27] = target: Fuc(a1-3)[Gal(b1-4)]GlcNAc(b1-2)Man(a1-3)[Fuc(a1-3)[Gal(b1-4)]GlcNAc(b1-2)Man(a1-6)]Man(b1-4)GlcNAc(b1-4)GlcNAc
# Outline: as §1
# [28] = target: Fuc(a1-3)[Gal(b1-4)]GlcNAc(b1-2)Man(a1-3)[Fuc(a1-3)[Gal(b1-4)]GlcNAc(b1-2)Man(a1-6)]Man(b1-4)GlcNAc(b1-4)[Fuc(a1-6)]GlcNAc
# Outline: as §1
# [29] = target: Fuc(a1-3)[Gal(b1-4)]GlcNAc(b1-3)Gal(b1-3)[Fuc(a1-4)]GlcNAc
# Outline: as §1
# [30] = target: Fuc(a1-3)[Gal(b1-4)]GlcNAc(b1-3)Gal(b1-4)[Fuc(a1-3)]GlcNAc
# Outline: as §1
# [31] = target: Fuc(a1-3)[Gal(b1-4)]GlcNAc(b1-3)Gal(b1-4)[Fuc(a1-3)]GlcNAc(b1-3)Gal(b1-4)[Fuc(a1-3)]GlcNAc
# Outline: as §1
# [32] = target: Fuc(a1-3)[Gal(b1-4)]GlcNAc(b1-3)GalNAc
# Outline: as §1
# [33] = target: Fuc(a1-3)[Gal(b1-4)]GlcNAc(b1-6)GalNAc
# Outline: as §1
# [34] = target: Fuc(a1-3)[Gal(b1-4)]GlcNAc(b1-6)[Gal(b1-3)GlcNAc(b1-3)]Gal(b1-4)Glc
# Outline: as §1
# [35] = target: Fuc(a1-3)[Gal(b1-4)]GlcNAc6S
# Outline: as §1
# [36] = target: Fuc(a1-3)[Gal3S(b1-4)]Glc
# Outline: as §1
# [37] = target: Fuc(a1-3)[Gal3S(b1-4)]GlcNAc
# Outline: as §1
binder,measurement,setting,value
B1,glycan array binding signal (z-score),[1],-0.171
same,glycan array binding signal (z-score),[2],-0.057
same,glycan array binding signal (z-score),[3],-0.255
same,glycan array binding signal (z-score),[4],-0.249
same,glycan array binding signal (z-score),[5],-0.036
same,glycan array binding signal (z-score),[6],2.42
same,glycan array binding signal (z-score),[7],-0.188
same,glycan array binding signal (z-score),[8],0.053
same,glycan array binding signal (z-score),[9],-0.289
same,glycan array binding signal (z-score),[10],-0.176
same,glycan array binding signal (z-score),[11],-0.32
same,glycan array binding signal (z-score),[12],-0.233
same,glycan array binding signal (z-score),[13],-0.372
same,glycan array binding signal (z-score),[14],-0.278
same,glycan array binding signal (z-score),[15],-0.186
same,glycan array binding signal (z-score),[16],-0.032
same,glycan array binding signal (z-score),[17],-0.169
same,glycan array binding signal (z-score),[18],-0.281
same,glycan array binding signal (z-score),[19],-0.22
same,glycan array binding signal (z-score),[20],0.033
same,glycan array binding signal (z-score),[21],0.492
same,glycan array binding signal (z-score),[22],-0.031
same,glycan array binding signal (z-score),[23],-0.041
same,glycan array binding signal (z-score),Fuc(a1-3)GlcNAc,-0.174
same,glycan array binding signal (z-score),[24],-0.028
same,glycan array binding signal (z-score),[25],-0.09
same,glycan array binding signal (z-score),[26],-0.355
same,glycan array binding signal (z-score),[27],0.078
same,glycan array binding signal (z-score),[28],-0.178
same,glycan array binding signal (z-score),[29],-0.357
same,glycan array binding signal (z-score),[30],0.013
same,glycan array binding signal (z-score),[31],-0.158
same,glycan array binding signal (z-score),[32],-0.404
same,glycan array binding signal (z-score),[33],2.66
same,glycan array binding signal (z-score),[34],-0.366
same,glycan array binding signal (z-score),[35],0.147
same,glycan array binding signal (z-score),[36],-0.391
same,glycan array binding signal (z-score),[37],-0.255
